# Reference: the supplement of paper PMC12217912
# The other results are listed elsewhere or left out. The full chains were built here from the parent and the listed change. Values near 0.05 are background.
# B1: TEV protease; numbered along this chain (parent)
# chain: MGESLFKGPRDYNPISSSICHLTNESDGHTTSLYGIGFGPFIITNKHLFRRNNGTLVVQSLHGVFKVKDTTTLQQHLVDGRDMIIIRMPKDFPPFPQKLKFREPQREERICLVTTNFQTKSMSSMVSDTSCTFPSGDGIFWKHWIQTKDGQCGSPLVSTRDGFIVGIHSASNFTNTNNYFTSVPKNFMELLTNQEAQQWVSGWRLNADSVLWGGHKVFMVKPEEPFQPVKEATQL
# Variants of: B1
# Test: raw area under fraction-flipped curve 0-4 h after induction (AUC4h, not background-subtracted), DNA-recorder readout of cleavage of the substrate (dimensionless); higher = more cleavage of the substrate by the protease variant
# Conditions: temperature: 34 °C; time window: 0-4 h after rhamnose induction
# Procedure: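 In vivo DNA recorder in E. coli TOP10(DE3) ΔrhaA at 34 °C. Each TEVp single-site mutant (parent TEVp 0) is paired with a single-site variant of the 7-mer TEVs (canonical ENLYFQ|S). The substrate sits between flexible linkers in a Bxb1-sfGFP-TEVs-SsrA fusion, so cleavage stabilises Bxb1 and speeds flipping of a recombination array, read by NGS. The value is the raw area under the fraction-flipped curve over 0-4 h after rhamnose induction (AUC4h), with ≥20 reads per time point. It is not background-subtracted; inactive controls average about 0.047.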
# 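Further: Bxb1 expression induced with 0.2% (w/v) L-rhamnose at OD600 near 0.5, cultures sampled hourly, flipped fraction per protease–substrate barcode pair counted by paired-end Illumina sequencing.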
Variant,area with substrate ENLCFQS,area with substrate ENLDFQS,area with substrate ENLEFQS,area with substrate ENLFFQS,area with substrate ENLHFQS,area with substrate ENLIFQS,area with substrate ENLKFQS,area with substrate ENLMFQS,area with substrate ENLNFQS,area with substrate ENLPFQS,area with substrate ENLQFQS,area with substrate ENLRFQS,area with substrate ENLSFQS,area with substrate ENLVFQS,area with substrate ENLAFQS,area with substrate ENLGFQS,area with substrate ENLLFQS,area with substrate ENLWFQS,area with substrate ENLTFQS
MGESLFKGPRDYNPISSSICHLTNESDGHTTSLYGIGFGPFDITNKHLFRRNNGTLVVQSLHGVFKVKDTTTLQQHLVDGRDMIIIRMPKDFPPFPQKLKFREPQREERICLVTTNFQTKSMSSMVSDTSCTFPSGDGIFWKHWIQTKDGQCGSPLVSTRDGFIVGIHSASNFTNTNNYFTSVPKNFMELLTNQEAQQWVSGWRLNADSVLWGGHKVFMVKPEEPFQPVKEATQL [I42D],0.0401,0.0525,0.0508,0.0402,0.0382,0.0435,0.0385,0.014,0.0428,0.0259,0.048,0.0512,0.0467,0.0501,,,,,
MGESLFKGPRDYNPISSSICHLTNESDGHTTSLYGIGFGPFIITNKHLFRRNNGTLVVQSLHGVFKVKDTTTLQQHLVDGRDMIIIRMPKDFPPFPQKLKFREPQREERICLVTTNFQTKSMSSMVSDTSCTFPSGDGIFWKHWIQTKDGQCGSPLVSTRDGFIVGIHSASNFTNTNNYFTSVPKNFMELLTNQEAQQWVSGWRLNADSVLWGGHKVFMVKPEEPFQPVKEADQL [T233D],0.0788,0.0582,,0.0858,0.0701,0.0886,0.0918,0.0868,0.0636,0.0654,0.0402,0.0732,0.0407,0.0954,0.0659,0.0603,0.0678,0.0714,
MGESLFKGPRDYNPISSSICHLTNESDGHTTSLYGIGFGPFIITNKHLFRRNNGTLVVQSLHGVFKVKDTTTLQQHLVDGRDMIIIRMPKDFPPFPQKLKFREPQREERICLVTTNFQTKSMSSMVSDTSCTFPSGDGIFWKHWIQTKDGQCGSPLVSTRDGFIVGIHSASNFTNTNNYFTSVPKNFMELLTNQEAQQWVSGWRLNADSVLWGGHKVFMVKPEEPFQPVKEASQL [T233S],,0.073,0.0681,0.124,0.0721,0.0848,0.0834,0.0744,0.0618,0.09,0.0731,,0.029,,0.0921,,,,
MGESLFKGPRDYNPISSSICHLTNESDGHTTSLYGIGFGPFIITNKHLFRRNNGTLVVQSLHGVFKVKDTTTLQQHLVDGRDMIIIRMPKDFPPFPQKLKFREPQREERICLVTTNFQTKSMSSMVSDTSCTFPSGDGIFWKHWIQTKDGQCGSPLVSTRDGFIVGIHSASNFTNTNNYFTSVPKNFMELLTNQEAQQWVSGWRLNADSVLWGGHKVFMVKPEEPFQPVKEATQM [L235M],0.0644,0.0584,0.0698,0.096,,0.0849,0.0762,0.0549,0.0668,,0.0752,0.0905,0.0718,0.0528,0.0867,0.104,0.0313,0.069,
MGESLFKGPRDYNPISSSICHLTNESDGHTTSLYGNGFGPFIITNKHLFRRNNGTLVVQSLHGVFKVKDTTTLQQHLVDGRDMIIIRMPKDFPPFPQKLKFREPQREERICLVTTNFQTKSMSSMVSDTSCTFPSGDGIFWKHWIQTKDGQCGSPLVSTRDGFIVGIHSASNFTNTNNYFTSVPKNFMELLTNQEAQQWVSGWRLNADSVLWGGHKVFMVKPEEPFQPVKEATQL [I36N],0.0394,0.0438,0.0457,0.0687,0.0488,0.0618,0.0544,0.0482,0.0496,0.052,0.0579,0.0544,0.0406,,,0.0608,0.0308,,0.0605
MGESLFKGPRIYNPISSSICHLTNESDGHTTSLYGIGFGPFIITNKHLFRRNNGTLVVQSLHGVFKVKDTTTLQQHLVDGRDMIIIRMPKDFPPFPQKLKFREPQREERICLVTTNFQTKSMSSMVSDTSCTFPSGDGIFWKHWIQTKDGQCGSPLVSTRDGFIVGIHSASNFTNTNNYFTSVPKNFMELLTNQEAQQWVSGWRLNADSVLWGGHKVFMVKPEEPFQPVKEATQL [D11I],0.0628,0.0687,0.0732,0.0857,0.0801,0.0846,,,0.0659,,,0.0634,,0.0983,,,0.0605,0.0598,
MGESLFKGPRDYNPISSSICHLQNESDGHTTSLYGIGFGPFIITNKHLFRRNNGTLVVQSLHGVFKVKDTTTLQQHLVDGRDMIIIRMPKDFPPFPQKLKFREPQREERICLVTTNFQTKSMSSMVSDTSCTFPSGDGIFWKHWIQTKDGQCGSPLVSTRDGFIVGIHSASNFTNTNNYFTSVPKNFMELLTNQEAQQWVSGWRLNADSVLWGGHKVFMVKPEEPFQPVKEATQL [T23Q],0.0535,0.063,0.0719,0.088,0.0245,,0.0679,0.0752,0.0576,0.0567,0.0569,0.0629,0.0742,0.0998,,,,0.0704,
MGPSLFKGPRDYNPISSSICHLTNESDGHTTSLYGIGFGPFIITNKHLFRRNNGTLVVQSLHGVFKVKDTTTLQQHLVDGRDMIIIRMPKDFPPFPQKLKFREPQREERICLVTTNFQTKSMSSMVSDTSCTFPSGDGIFWKHWIQTKDGQCGSPLVSTRDGFIVGIHSASNFTNTNNYFTSVPKNFMELLTNQEAQQWVSGWRLNADSVLWGGHKVFMVKPEEPFQPVKEATQL [E3P],0.0642,,0.115,0.0946,0.0699,0.064,0.0765,,,0.0715,,,,,,,,0.0766,0.0721
MGESLFKGPRDYNPISSSICKLTNESDGHTTSLYGIGFGPFIITNKHLFRRNNGTLVVQSLHGVFKVKDTTTLQQHLVDGRDMIIIRMPKDFPPFPQKLKFREPQREERICLVTTNFQTKSMSSMVSDTSCTFPSGDGIFWKHWIQTKDGQCGSPLVSTRDGFIVGIHSASNFTNTNNYFTSVPKNFMELLTNQEAQQWVSGWRLNADSVLWGGHKVFMVKPEEPFQPVKEATQL [H21K],0.0738,0.0626,,0.0796,0.0754,,0.0816,0.0948,0.0719,0.0956,0.0623,0.0716,0.06,0.08,,0.0704,0.0788,0.0621,
